# PubChem BioAssay AID1745853 (National Center for Advancing Translational Sciences (NCATS), 2022)
# Where “and” joins values, the source holds several entries; their conditions need not be identical. Equal entries are not always repeated. Some of the results follow. Shown are side measurements of this screen, not its main read-out; they come without a call.
# What was measured:
# Assay in all cases: Primary Screen for Target Class Profiling of Small Molecule Inhibitors of Methyltransferases
# [1] = target: Glycine N-methyltransferase (Homo sapiens) (UniProt Q14749); settings: purified enzyme, MTase-Glo SAH luminescence; measured here: GNMT inhibition; at 40 µM; stronger effect = lower value
# Method in brief: (§1)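 Each enzyme was reacted with SAM and its substrate, with compounds tested once at 40 uM; SAH formed was read by MTase-Glo luminescence.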
# [2] = target: Guanidinoacetate N-methyltransferase (Homo sapiens) (UniProt Q14353); settings: purified enzyme, MTase-Glo SAH luminescence; measured here: GAMT inhibition; at 40 µM; stronger effect = lower value
# Method in brief: as §1
# [3] = target: Histamine N-methyltransferase (Homo sapiens) (UniProt P50135); settings: purified enzyme, MTase-Glo SAH luminescence; measured here: HNMT inhibition; at 40 µM; stronger effect = lower value
# Method in brief: as §1
# [4] = target: Nicotinamide N-methyltransferase (Homo sapiens) (UniProt P40261); settings: purified enzyme, MTase-Glo SAH luminescence; measured here: NNMT inhibition; at 40 µM; stronger effect = lower value
# Method in brief: as §1
# [5] = target: Phenylethanolamine N-methyltransferase (Homo sapiens) (UniProt P11086); settings: purified enzyme, MTase-Glo SAH luminescence; measured here: PNMT inhibition; at 40 µM; stronger effect = lower value
# Method in brief: as §1
# % is scaled to controls: 0 for no effect and ±100 for the full control effect.
SMILES,"activity change, negative = inhibition [1]","activity change, negative = inhibition [2]","activity change, negative = inhibition [3]","activity change, negative = inhibition [4]","activity change, negative = inhibition [5]"
COc1cccc(CC(=O)N2CC[C@H]3C(=O)NCCCCCN(Cc4cccnc4)[C@@H]3C2)c1,-4.38%,-6.33%,-8.71%,-10.6%,-28%
CCC1c2cccn2-c2ccccc2CN1C(=O)NCc1cccc(OC)c1 (configuration not stated),0.876%,-0.431%,-6.47%,-8.32%,0.476%
CC[C@H]1CN2CC[C@H]1C[C@@H]2CNCc1ccc(-c2ccccc2)cc1,-9.79%,-8.04%,-60.6%,-19.5%,-30.3%
Cc1ccc(C)c(NC(=O)N2Cc3ccccc3-n3cccc3C2C)c1 (configuration not stated),3.92%,0%,3.33%,0.454%,6.34%
CN1CCC[C@@H]1Cc1c[nH]c2ccc(Nc3ncccc3[N+](=O)[O-])cc12,-16.9% and -1.85%,-0.072% and 1.4%,-67.9% and -68.7%,-6.74% and -15.7%,2.09% and -0.762%
Cc1ccccc1C1c2cccn2-c2ccccc2CN1C(=O)Nc1ccccc1F (configuration not stated),11.6%,1.12%,5.03%,4.43%,-0.894%
COc1cccc(CNC(=O)N2Cc3ccccc3-n3cccc3C2c2cccc(C)c2)c1 (configuration not stated),6.99%,0%,3.25%,4.79%,4.48%
CCOc1ccccc1NC(=O)N1Cc2ccccc2-n2cccc2C1c1ccc(F)cc1 (configuration not stated),0.03%,3.21%,0.074%,-4.08%,0.117%
C[C@H]1CN(Cc2ccc(CC(=O)N3CCC(Nc4cccc(F)c4)CC3)cc2)CCN1,-9.44%,-12.8%,-3.08%,-25.1%,-6.58%
C[C@]12CCC(=O)C=C1CC[C@@H]1[C@@H]2[C@@H](O)C[C@]2(C)C(=O)CC[C@@H]12,2.75%,7.92%,8.99%,-5.88%,4.07%
C=C1[C@@H]2CC[C@@]3(C)[C@H](c4ccoc4)OC(=O)C[C@]13O[C@H]1CC(=O)C(C)(C)[C@H](C(OC(C)=O)C(=O)OC)[C@]12C (some centres not stated),4.91%,4.65%,7.16%,-12%,-2.93%
COC(=O)c1cccc(NC(=O)N2Cc3ccccc3-n3cccc3C2c2cccs2)c1 (configuration not stated),5.23%,2.18%,5.29%,-1.04%,1.72%
CCc1ccc(C2c3cccn3-c3ccccc3CN2C(=O)Nc2ccc(C)c(F)c2)cc1 (configuration not stated),9.29%,4.56%,1.35%,2.98%,6.14%
O=C(Nc1ccc2c(c1)OCCO2)N1Cc2ccccc2-n2cccc2C1c1ccc(F)cc1 (configuration not stated),-2.38%,0%,4.99%,3.87%,6.95%
Cc1c(Cl)cccc1NC(=O)N1Cc2ccccc2-n2cccc2C1C(C)C (configuration not stated),1.27%,0%,4.84%,0.268%,10.8%
CCC(=O)CCCCC[C@@H]1NC(=O)[C@H]2CCCCN2C(=O)[C@H]([C@@H](C)CC)NC(=O)[C@H](Cc2cn(OC)c3ccccc23)NC1=O,-3.6%,–,8.82%,-3.55%,13.8%
CCN1CCCNCC12CCOCC2,-0.118%,-1.41%,-0.228%,0.245%,0.395%
CC(C)(C)c1o[nH]c(=O)c1CC(N)C(=O)O (configuration not stated),-4.58%,7.58%,-0.909%,-0.703%,9.06%
O=C1CCCN1CC#CCN1CCCC1,0.577%,9.76%,4.35%,-4.68%,2.66%
COC1CC(OC2CCC3(C=O)C(CCC4C3CCC3(C)C(C5=CC(=O)OC5)CCC43O)C2)OC(C)C1O (configuration not stated),4.66%,7.69%,10%,-4.53%,6.22%

SMILES,"activity change, negative = inhibition [1]","activity change, negative = inhibition [2]","activity change, negative = inhibition [3]","activity change, negative = inhibition [4]","activity change, negative = inhibition [5]"
CO[C@H]1C[C@H](O[C@H]2CC[C@@]3(C)C(=CCC4C3CC[C@]3(C)[C@@H](C5=CC(=O)OC5)CC[C@]43O)C2)O[C@@H](C)[C@@H]1O[C@@H]1O[C@H](CO[C@@H]2O[C@H](CO)[C@@H](O)[C@H](O)[C@H]2O)[C@@H](O)[C@H](O)[C@H]1O (some centres not stated),4.6%,1.84%,8.55%,-10.2%,-2.23%
Cc1ccccc1C1c2cccn2-c2ccccc2CN1C(=O)NCc1ccccc1 (configuration not stated),16%,1.95%,6.47%,9.75%,10.1%
CCOc1ccc(NC(=O)N2Cc3ccccc3-n3cccc3C2C)cc1 (configuration not stated),6.29%,0%,-0.901%,2.91%,5.69%
C[C@]12N[C@H](Cc3ccccc31)c1ccccc12,-13%,-1.4%,-1.89%,-10.6%,-1.21%
Cc1cccc(NC(=O)N2Cc3ccccc3-n3cccc3C2c2ccc(C(C)C)cc2)c1 (configuration not stated),-1.77%,6.83%,-2.2%,-1.31%,0.232%
O=C(N[C@@H]1N=C(c2ccccc2F)c2cccc3c2N(CC3)C1=O)c1cc2ccccc2[nH]1,-6.96%,-16.1%,-5.64%,-34%,-11.1%
CCOC(=O)Cc1ccc(NC(=O)N2Cc3ccccc3-n3cccc3C2C)cc1 (configuration not stated),7.34%,0.809%,-2.85%,0.536%,6.32%
CC(=O)O[C@H]1C(=O)[C@]2(C)C(O)C[C@H]3OC[C@@]3(OC(C)=O)[C@H]2[C@H](OC(=O)c2ccccc2)[C@]2(O)C[C@H](O)C(C)=C1C2(C)C (some centres not stated),-3.1%,-12.3%,3.16%,-22.6%,-7.8%
NC(Cc1cc(O)c(O)cc1O)C(=O)O (configuration not stated),-70.5%,-9.91%,-29.7%,-18.7%,-5.92%
CC(=O)OC[C@]12C[C@H](OC(=O)CC(C)C)C(C)=C[C@H]1O[C@@H]1[C@H](O)[C@@H](OC(C)=O)[C@@]2(C)[C@@]12CO2,-0.222%,5.62%,2.89%,-9.33%,0.025%
COc1ccc(C2c3cccn3-c3ccccc3CN2C(=O)Nc2ccccc2Cl)cc1 (configuration not stated),8.27%,1.56%,3.18%,0.773%,5.37%
CC(=O)Nc1ccc(OC[C@](C)(O)C(=O)Nc2ccc([N+](=O)[O-])c(C(F)(F)F)c2)cc1,-1.07%,2.52%,10.3%,-11.7%,0.513%
CCOC(=O)c1cccc(NC(=O)N2Cc3ccccc3-n3cccc3C2c2cccc(Cl)c2)c1 (configuration not stated),11.7%,1.85%,5.99%,-1.03%,8.55%
COC(=O)c1ccc(NC(=O)N2Cc3ccccc3-n3cccc3C2c2ccccc2Cl)cc1 (configuration not stated),5.77%,0%,8.66%,-11%,-1.07%
O=C(NCc1ccccc1)c1cn(C2CNC2)nn1,-2.96%,1.17%,-0.342%,-7.5%,12.2%
CCOC(=O)c1cccc(NC(=O)N2Cc3ccccc3-n3cccc3C2c2ccc(CC)cc2)c1 (configuration not stated),7.44%,0%,-1.24%,-0.566%,6.03%
CC(N)Cc1c[nH]c2ccc(O)cc12 (configuration not stated),-6.84%,9.2%,-9.12%,-4.15%,2.28%
C[C@H]1CC[C@@H]2[C@@H](C)[C@H]3[C@H](C[C@H]4[C@@H]5CC=C6CC(O[C@@H]7O[C@H](CO)[C@@H](O)[C@H](O[C@@H]8O[C@H](CO)[C@@H](O)[C@H](O)[C@H]8O)[C@@H]7O[C@@H]7O[C@@H](C)[C@H](O)[C@@H](O)[C@H]7O)CC[C@]6(C)[C@H]5CC[C@]34C)N2C1 (some centres not stated),0%,4.99%,3.06%,-7.47%,6.98%
CN(N=O)c1cc(O)ccc1O,-75.2%,-32.4%,-1.71%,-16.2%,-57.4%
O=C1CO[C@H]2CN(Cc3ccccc3)C[C@H]2N1Cc1cccnc1,0.77%,1.9%,1.66%,-2.03%,16.8%

SMILES,"activity change, negative = inhibition [1]","activity change, negative = inhibition [2]","activity change, negative = inhibition [3]","activity change, negative = inhibition [4]","activity change, negative = inhibition [5]"
CC1CCCC(O)CCC/C=C/c2cc(O)cc(O)c2C(=O)O1 (configuration not stated),0.096%,3.87%,5.94%,-16.3%,-4.21%
CN(C)c1ccc(C2c3cccn3-c3ccccc3CN2C(=O)Nc2cccc(C(F)(F)F)c2)cc1 (configuration not stated),14.4%,1.26%,3.94%,10.6%,10.1%
N#CC(O[C@@H]1O[C@H](CO[C@@H]2O[C@H](CO)[C@@H](O)[C@H](O)[C@H]2O)[C@@H](O)[C@H](O)[C@H]1O)c1ccccc1 (some centres not stated),–,-1.85%,–,-14.7%,2.73%
COc1ccc(Cl)cc1NC(=O)N1Cc2ccccc2-n2cccc2C1c1ccccc1 (configuration not stated),2.66%,2.47%,-5.02%,-7.43%,0.314%
CSc1ccc(C2c3cccn3-c3ccccc3CN2C(=O)Nc2cccc(C)c2C)cc1 (configuration not stated),-0.011%,2.4%,2.6%,-3.23%,2.47%
CC(C)C1(OO)C=C2C(=O)CC3C(C)(C(=O)O)CCCC3(C)C2CC1 (configuration not stated),-0.165%,-2.15%,9.73%,-14.7%,-11.1%
CCCN(CCC)C1CCc2ccc(O)cc2C1 (configuration not stated),-1.78%,8.01%,-66.7%,-4.45%,10.4%
c1ccc(C2(c3ccccc3)CC2C2=NCCN2)cc1 (configuration not stated),4.29%,7.06%,-11.3%,-12.1%,3.45%
COc1ccc(C2c3cccn3-c3ccccc3CN2C(=O)Nc2ccc(F)cc2)cc1OC (configuration not stated),8.28%,1.22%,3.82%,2%,6.93%
N#CC(O[C@@H]1O[C@H](CO)[C@@H](O)[C@H](O)[C@H]1O)c1ccccc1 (some centres not stated),2.66%,6.72%,6.94%,-8.33%,6.4%
O=C(NCc1ccccc1)N1Cc2ccccc2-n2cccc2C1c1cc(F)cc(F)c1 (configuration not stated),7.9%,0%,6.09%,3.51%,4.17%
CN(C)c1ccc(C2c3cccn3-c3ccccc3CN2C(=O)Nc2cccc3c2CCCC3)cc1 (configuration not stated),0.917%,5.55%,-9.2%,-6.01%,0.246%
CCOc1ccc(C2c3cccn3-c3ccccc3CN2C(=O)Nc2ccc(C)c(F)c2)cc1 (configuration not stated),0.002%,0%,6%,2.93%,2.74%
[Cl-].[Cl][Pt].[NH2-].[NH2-].c1ccncc1,-93.7%,7.69%,-0.062%,-5.09%,7.17%
CCc1ccccc1NC(=O)N1Cc2ccccc2-n2cccc2C1CC (configuration not stated),-11%,0%,-2.17%,-4.26%,2.04%
C=C[C@H]1CN2CC[C@H]1C[C@@H]2CNCc1ccc2c(c1)OCO2,-5.64%,-3.84%,-28%,-8.64%,-0.782%
O=c1c(C2CCCCC2)ccc2n1C[C@H]1C[C@@H]2CN(S(=O)(=O)c2ccccc2)C1,-14.8%,-8.77%,-6.92%,-19%,-3.46%
COC(=O)CC1CC2(C(=O)c3c(O)cccc3C2(O)C(=O)OC)C(C)O1 (configuration not stated),0%,8.94%,10.5%,-2.66%,7.22%
